# Measurements published in the supplement of paper PMC3334620.
# Whole data set: some 33,000 sequences, median “E-score (-0.5 to 0.5)” near -0.043, cut for the highest 2% near 0.37. The list shows a part of the results.
# Target: T1, Upc2 (UniProt Q12151)
# T1 sequence: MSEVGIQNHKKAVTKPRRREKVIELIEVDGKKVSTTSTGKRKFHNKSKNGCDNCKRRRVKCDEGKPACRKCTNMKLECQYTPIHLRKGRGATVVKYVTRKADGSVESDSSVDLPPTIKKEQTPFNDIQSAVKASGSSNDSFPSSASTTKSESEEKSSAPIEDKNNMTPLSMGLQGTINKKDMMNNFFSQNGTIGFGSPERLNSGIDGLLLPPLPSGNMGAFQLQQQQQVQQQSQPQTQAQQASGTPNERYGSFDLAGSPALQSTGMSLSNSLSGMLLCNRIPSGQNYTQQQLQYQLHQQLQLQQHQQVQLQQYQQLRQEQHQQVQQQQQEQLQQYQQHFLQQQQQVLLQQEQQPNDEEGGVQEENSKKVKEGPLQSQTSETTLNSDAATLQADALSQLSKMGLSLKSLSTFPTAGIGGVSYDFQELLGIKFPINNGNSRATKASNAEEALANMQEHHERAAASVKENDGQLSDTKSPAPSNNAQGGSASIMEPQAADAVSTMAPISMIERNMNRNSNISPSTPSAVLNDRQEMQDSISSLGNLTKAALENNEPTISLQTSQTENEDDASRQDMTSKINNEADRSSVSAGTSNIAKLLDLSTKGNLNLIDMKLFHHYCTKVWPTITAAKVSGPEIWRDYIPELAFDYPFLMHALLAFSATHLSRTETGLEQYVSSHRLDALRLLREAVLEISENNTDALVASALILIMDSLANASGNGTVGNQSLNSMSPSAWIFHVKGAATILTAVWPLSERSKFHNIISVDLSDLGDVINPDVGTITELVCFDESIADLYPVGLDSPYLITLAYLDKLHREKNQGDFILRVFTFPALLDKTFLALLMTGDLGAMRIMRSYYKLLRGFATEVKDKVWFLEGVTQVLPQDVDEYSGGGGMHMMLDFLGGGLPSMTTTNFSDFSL
# Test: PBM E-score (8-mer binding enrichment) (E-score (-0.5 to 0.5)); higher = stronger / more preferred TF binding; most listed sequences are background and not binding sites
# Settings: protein concentration: 200 nM; construct: GST-full length
# Outline: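 Yeast transcription factors carrying a GST tag, as full-length proteins or DNA-binding domains, were produced by PURExpress in vitro transcription/translation. About 100-200 nM protein was applied to universal all-10-mer Agilent arrays, double-stranded by primer extension on fresh or once-stripped slides. Bound protein was detected with fluorescent anti-GST, and scans were normalised with masliner. The Universal PBM Analysis Suite gave each ungapped eight-base word, pooled with its reverse complement, an E-score, a modified Wilcoxon-Mann-Whitney statistic.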
row,Sequence,PBM E-score
1,GCACACCA,-0.124
2,GGCTCACC,-0.23
3,TGCAACAA,-0.117
4,GTATTAGA,0.213
5,GCGGAGCC,-0.0172
6,TCAAACCA,0.137
7,ACCAGCAG,-0.211
8,CACTCTAC,0.0382
9,CGGTGGTC,0.122
10,AGCCAGGA,-0.126
11,ACATTCAT,-0.214
12,ATCGGGCA,-0.148
13,CTCTATCC,-0.209
14,CTTGCTCC,-0.255
15,GTCGACTA,0.117
16,GGTTCTAC,-0.0373
17,AATTCAAG,0.0162
18,ACTTGGGA,-0.224
19,GCTCAAAA,0.00891
20,ATAAGATG,0.188
21,ATACCACC,-0.0309
22,CATGCTAG,-0.119
23,CATATGTC,0.0205
24,ATTTTCTC,-0.105
25,AGTAGCCA,-0.191

row,Sequence,PBM E-score
1,AGATTCGA,-0.0815
2,AAAGACCT,-0.26
3,GATTGATA,0.0111
4,CATGCTGC,-0.246
5,CTGATAGA,-0.00561
6,CTCATGCA,-0.15
7,TTATTAAA,0.0741
8,GGCATGCC,0.196
9,CTTGTGAA,-0.182
10,AACGTCAA,0.104
11,AATATGGT,0.115
12,ATAGGACC,-0.0988
13,AAACGCCA,0.137
14,CGTAGTCC,-0.0309
15,AAGGTGCA,-0.195
16,CCCTTATA,0.197
17,AAGGAAAG,-0.171
18,CTCAAGTC,-0.0205
19,AACGGGGC,0.206
20,CAAGTCAA,-0.065
21,ACAGTCCA,-0.0945
22,TAATGCTA,-0.11
23,GGTTCCTA,-0.0658
24,ACAAGAGG,-0.227
25,GATGGGCA,-0.0127

row,Sequence,PBM E-score
1,ATCTCCAG,-0.0526
2,CGCTTCCC,0.00654
3,TAGTAGCA,0.0994
4,AAAATCTG,-0.0273
5,AAAGCACC,-0.0139
6,ATCTGTGA,-0.0259
7,CGTATGAG,0.415
8,CAACCATG,-0.257
9,AGCTTGAG,-0.215
10,CCGCGGCA,-0.117
11,GTGGCTCA,-0.239
12,ACCTACGA,0.227
13,CCAGTCGC,0.0234
14,AGTGCCGC,-0.129
15,CAGGCCTA,-0.0808
16,CCTCAGAA,-0.0458
17,CACTGATA,-0.0955
18,AGAGTTCG,0.1
19,GTGACGTA,0.174
20,AGTTCCAG,-0.188
21,CGTAAGGA,0.326
22,ATCGATGA,-0.0519
23,CCTCTCCC,-0.183
24,CGGTAACG,0.273
25,GGCGAGCC,-0.191

row,Sequence,PBM E-score
1,CGGCCTAA,0.0611
2,CTAGCGAA,-0.106
3,AGATGAAA,-0.0712
4,CATCGATC,-0.0852
5,CAGACGCA,-0.19
6,GATGGGAA,-0.0309
7,CGCCCCGA,-0.0201
8,AGGTTAAG,-0.214
9,CCCCAACA,-0.167
10,CCTGAAGG,-0.274
11,GCACAAAC,0
12,CACACCGA,0.151
13,GGTTGACA,-0.0866
14,ACATAACT,-0.0659
15,CAGGTAAA,0.0393
16,ACCAACCA,-0.0187
17,CAGGGACC,-0.169
18,CGTCGTTC,0.464
19,CATGCGAG,0.198
20,GCTGAGCC,-0.00051
21,AGCTTCAG,-0.298
22,AAGAAAGG,-0.0897
23,AGAAAATG,0.00498
24,ACAGGGAT,0.00643
25,ATCGAAGC,-0.00965

row,Sequence,PBM E-score
1,CCGGGGCA,-0.153
2,CCATTCAC,0.00889
3,AAAACCCT,-0.0378
4,AGCCCCAT,-0.194
5,CCATGGGA,-0.206
6,CATGAGAA,-0.077
7,CCTGGGTA,-0.236
8,CTTCCGTC,0.00548
9,ACCGTATG,0.381
10,ACCAAGAT,-0.106
11,AGTGAAGG,-0.178
12,CCACCAAA,-0.102
13,CGTTTACA,0.441
14,CCATCTAG,-0.18
15,GCTGCTAC,0.188
16,GATACTGA,0.0533
17,CCCATTAC,-0.0721
18,GGGCCGAC,-0.142
19,ACTCGGCG,0.192
20,CTTGCTAA,-0.215
21,CATTCAGG,-0.26
22,AATGTGGA,-0.0568
23,AGAGCGGC,-0.155
24,ATATGATC,0.0198
25,ATTGCCAA,-0.0652

row,Sequence,PBM E-score
1,GTGAAGCA,-0.175
2,GCCAAAGA,-0.17
3,ACAGGCAA,0.0259
4,CATAGGGC,-0.158
5,GACGGGTA,-0.0987
6,ATGACTAA,-0.0336
7,CCTGGGGA,-0.288
8,CGGTGTGA,-0.00752
9,GAATGCGC,0.0704
10,GTAGACAC,-0.0415
11,ACCGATGC,0.0858
12,CAAGAGCG,-0.041
13,CTCCTCAG,-0.0401
14,TCCGTCGA,-0.00761
15,GTCATCGA,-0.034
16,TCGAAACA,-0.00849
17,CTTCCAGC,-0.303
18,CTATAAGA,0.247
19,GCCCTTAC,-0.112
20,ACCACCAG,-0.0982
21,CAGGGGCC,-0.296
22,ACTCGAGA,0.0109
23,GCGGGCAC,-0.219
24,AGAGGTCG,0.117
25,AGCTTTTC,-0.0374

row,Sequence,PBM E-score
1,CTTGTAAC,0.132
2,AGGTTACG,0.221
3,CTCGAGTA,0.0834
4,ATGCTTTA,0.0363
5,TCCTGCGA,-0.0343
6,GGCGCGCA,-0.0733
7,CGGAGGTA,-0.0859
8,CTTTTGGC,0.0155
9,AATGCAAC,0.155
10,TAATTCGA,-0.00307
11,ATACTTAA,0.0851
12,CTGACATC,-0.151
13,ATTTCAGC,-0.221
14,CCGCAGTA,-0.174
15,ACATTAGT,-0.0556
16,GTAAGCAA,0.025
17,TACGAGGA,0.464
18,AATACTTA,0.0146
19,ACCTGGGA,-0.245
20,CAGTTTAA,0.0775
21,AAGTGGTC,-0.0902
22,CTGCCATC,-0.0599
23,GAGGTACC,-0.0544
24,CGCATCTA,0.134
25,CATGTCCC,-0.0585

row,Sequence,PBM E-score
1,AAATTATG,-0.0769
2,ACCCGCTA,-0.161
3,AGAAGTAA,-0.109
4,ATTCTGTA,0.0418
5,CGACACCC,-0.0363
6,CGGATTGA,-0.0804
7,AACGTGAC,-0.00267
8,CGGTAGAA,-0.172
9,ATTGACGG,0.0345
10,CCGTTAAG,0.309
11,GATCAGCC,-0.29
12,TGCAATAA,-0.0238
13,AATCAGTG,-0.167
14,AATGATGC,-0.00917
15,AGCAAAAC,-0.0596
16,AGTTTGGG,-0.195
17,AGCGGATC,0.0526
18,AGCTATCA,-0.0312
19,GTCCAGAC,-0.0537
20,CAGGGTAG,-0.144
21,AGTCTACG,0.158
22,AGCAACAC,0.00868
23,GGTCCACC,-0.188
24,GTAAGCAC,-0.0922
25,TACAAGAA,0.0389

row,Sequence,PBM E-score
1,CCGGGCTA,-0.18
2,CTAGTCAC,-0.101
3,GAAAGAAA,0.103
4,GCTACTGA,-0.101
5,CAGTGACC,-0.27
6,CCTGCAAA,-0.0886
7,AACGGTAA,0.278
8,ACTCCCGA,-0.014
9,GTAGGGTA,0.00363
10,AAGGTAGA,-0.111
11,AGATTTAA,-0.0243
12,CACAGGTG,-0.201
13,CTGCCCAA,-0.292
14,GTTGACAA,0.1
15,AACTACCC,-0.259
16,ATACGTGC,0.318
17,CTCGAATA,0.206
18,GAGTTGCA,-0.261
19,CCGCACAA,0.0872
